This is an account of results in patent US11685745B2, “Substituted benzoxazole and benzofuran compounds as PDE7 inhibitors” (Dart NeuroScience, LLC, priority 2017, dated 2023).

Molecules are shown by their SMILES.

This assay has as its target N-terminal truncated recombinant human PDE7B enzyme (Homo sapiens (Human), UniProt Q9NP56). The experiment in a line: biochemical.
By IC50 is commonly meant the concentration needed to halve the response being measured. For `O=C1Nc2c(Cl)cc3nc(CNCc4ncc(F)cc4F)oc3c2C2(CCCCC2)N1` [Example 53, 5-Chloro-2-({[(3,5-difluoropyridin-2-yl)methyl]amino}methyl)-7,8-dihydro-6H-spiro[[1,3]oxazolo[5,4-f]quinazoline-9,1′-cyclohexane]-7-one], the IC50 was in the range of 10 to 100 nM. To `O=C1Nc2c(Cl)cc3nc(CNCC4CCCCN4)oc3c2C2(CCCCC2)N1` (stereo not shown) [Example 54, 5-Chloro-2-{[(piperidin-2-ylmethyl)amino]methyl}-7,8-dihydro-6H-spiro[[1,3]oxazolo[5,4-f]quinazoline-9,1′-cyclohexane]-7-one] belongs 10 to 100 nM; to `O=C1Nc2c(Cl)cc3nc(CNCC(=O)N4CCCCC4)oc3c2C2(CCCCC2)N1` [Example 55, 5-Chloro-2-({[2-oxo-2-(piperidin-1-yl)ethyl]amino}methyl)-7,8-dihydro-6H-spiro[[1,3]oxazolo[5,4-f]quinazoline-9,1′-cyclohexane]-7-one], 10 to 100 nM. `CCN(C)C(=O)CNCc1nc2cc(Cl)c3c(c2o1)C1(CCCCC1)NC(=O)N3` [Example 56, 2-({5-Chloro-7-oxo-7,8-dihydro-6H-spiro[[1,3]oxazolo[5,4-f]quinazoline-9,1′-cyclohexane]-2-ylmethyl}amino)-N-ethyl-N-methylacetamide]: the IC50 was in the range of 10 to 100 nM. To `CN1CCN(Cc2nc3cc(Cl)c4c(c3o2)C2(CCCCC2)NC(=O)N4)CC1=O` [Example 57, 5-Chloro-2-[(4-methyl-3-oxopiperazin-1-yl)methyl]-7,8-dihydro-6H-spiro[[1,3]oxazolo[5,4-f]quinazoline-9,1′-cyclohexane]-7-one] belongs 10 to 100 nM; to `CCN1CCN(Cc2nc3cc(Cl)c4c(c3o2)C2(CCCCC2)NC(=O)N4)CC1=O` [Example 58, 5-Chloro-2-[(4-ethyl-3-oxopiperazin-1-yl)methyl]-7,8-dihydro-6H-spiro[[1,3]oxazolo[5,4-f]quinazoline-9,1′-cyclohexane]-7-one], 10 to 100 nM.

Take `O=C1Nc2c(Cl)cc3nc(CNCc4ccccn4)oc3c2C2(CCCCC2)N1` [Example 59, 5-Chloro-2-{[(pyridin-2-ylmethyl)amino]methyl}-7,8-dihydro-6H-spiro[[1,3]oxazolo[5,4-f]quinazoline-9,1′-cyclohexane]-7-one]: the IC50 was 100 to 1000 nM. To `O=C1Nc2c(Cl)cc3nc(CNCc4ncccn4)oc3c2C2(CCCCC2)N1` [Example 60, 5-Chloro-2-{[(pyrimidin-2-ylmethyl)amino]methyl}-7,8-dihydro-6H-spiro[[1,3]oxazolo[5,4-f]quinazoline-9,1′-cyclohexane]-7-one] belongs 10 to 100 nM; to `COc1cncc(CNCc2nc3cc(Cl)c4c(c3o2)C2(CCCCC2)NC(=O)N4)c1` [Example 61, 5-Chloro-2-({[(5-methoxypyridin-3-yl)methyl]amino}methyl)-7,8-dihydro-6H-spiro[[1,3]oxazolo[5,4-f]quinazoline-9,1′-cyclohexane]-7-one], 10 to 100 nM; to `CC1C(=O)N(C)CCN1Cc1nc2cc(Cl)c3c(c2o1)C1(CCCCC1)NC(=O)N3` (stereo not shown) [Example 62, 5-Chloro-2-[(2,4-dimethyl-3-oxopiperazin-1-yl)methyl]-7,8-dihydro-6H-spiro[[1,3]oxazolo[5,4-f]quinazoline-9,1′-cyclohexane]-7-one], 10 to 100 nM. To `CCOC(=O)C1CCN(Cc2nc3cc(Cl)c4c(c3o2)C2(CCCCC2)NC(=O)N4)CC1` [Example 63, Ethyl 1-{5-chloro-7-oxo-7,8-dihydro-6H-spiro[[1,3]oxazolo[5,4-f]quinazoline-9,1′-cyclohexane]-2-ylmethyl}piperidine-4-carboxylate] belongs 100 to 1000 nM; to `CC(=O)C1CCN(Cc2nc3cc(Cl)c4c(c3o2)C2(CCCCC2)NC(=O)N4)CC1` [Example 65, 2-[(4-Acetylpiperidin-1-yl)methyl]-5-chloro-7,8-dihydro-6H-spiro[[1,3]oxazolo[5,4-f]quinazoline-9,1′-cyclohexane]-7-one], 10 to 100 nM.

`COC(=O)C1CCN(Cc2nc3cc(Cl)c4c(c3o2)C2(CCCCC2)NC(=O)N4)CC1` [Example 66, Methyl 1-{5-chloro-7-oxo-7,8-dihydro-6H-spiro[[1,3]oxazolo[5,4-f]quinazoline-9,1′-cyclohexane]-2-ylmethyl}piperidine-4-carboxylate]: the IC50 fell in the range of 10 to 100 nM. Take `O=C1Nc2c(Cl)cc3nc(CNCc4ccc(F)cn4)oc3c2C2(CCCCC2)N1` [Example 67, 5-Chloro-2-({[(5-fluoropyridin-2-yl)methyl]amino}methyl)-7,8-dihydro-6H-spiro[[1,3]oxazolo[5,4-f]quinazoline-9,1′-cyclohexane]-7-one]: the IC50 is 10 to 100 nM. For `CC(C)COC1CN(Cc2nc3cc(Cl)c4c(c3o2)C2(CCCCC2)NC(=O)N4)C1` [Example 68, 5-Chloro-2-{[3-(2-methylpropoxy)azetidin-1-yl]methyl}-7,8-dihydro-6H-spiro[[1,3]oxazolo[5,4-f]quinazoline-9,1′-cyclohexane]-7-one], the 50% inhibitory concentration (IC50) lay in the range of 100 to 1000 nM. To `CCOC1CCN(Cc2nc3cc(Cl)c4c(c3o2)C2(CCCCC2)NC(=O)N4)CC1` [Example 69, 5-Chloro-2-[(4-ethoxypiperidin-1-yl)methyl]-7,8-dihydro-6H-spiro[[1,3]oxazolo[5,4-f]quinazoline-9,1′-cyclohexane]-7-one] belongs 100 to 1000 nM; to `O=C1Nc2c(Cl)cc3nc(CN4CCC(OCC5CC5)CC4)oc3c2C2(CCCCC2)N1` [Example 70, 5-Chloro-2-{[4-(cyclopropylmethoxy)piperidin-1-yl]methyl}-7,8-dihydro-6H-spiro[[1,3]oxazolo[5,4-f]quinazoline-9,1′-cyclohexane]-7-one], 100 to 1000 nM. To `O=C1Nc2c(Cl)cc3nc(CN4CCC(O)(C(F)(F)F)CC4)oc3c2C2(CCCCC2)N1` [Example 71, 5-Chloro-2-{[4-hydroxy-4-(trifluoromethyl)piperidin-1-yl]methyl}-7,8-dihydro-6H-spiro[[1,3]oxazolo[5,4-f]quinazoline-9,1′-cyclohexane]-7-one] belongs 10 to 100 nM; to `CC(C)OC1CCN(Cc2nc3cc(Cl)c4c(c3o2)C2(CCCCC2)NC(=O)N4)CC1` [Example 72, 5-Chloro-2-{[4-(propan-2-yloxy)piperidin-1-yl]methyl}-7,8-dihydro-6H-spiro[[1,3]oxazolo[5,4-f]quinazoline-9,1′-cyclohexane]-7-one], 100 to 1000 nM; to `O=C1Nc2c(Cl)cc3nc(CN4CC(F)C4)oc3c2C2(CCCCC2)N1` [Example 73, 5-Chloro-2-[(3-fluoroazetidin-1-yl)methyl]-7,8-dihydro-6H-spiro[[1,3]oxazolo[5,4-f]quinazoline-9,1′-cyclohexane]-7-one], 10 to 100 nM. `COC1CN(Cc2nc3cc(Cl)c4c(c3o2)C2(CCCCC2)NC(=O)N4)C1` [Example 74, 5-Chloro-2-[(3-methoxyazetidin-1-yl)methyl]-7,8-dihydro-6H-spiro[[1,3]oxazolo[5,4-f]quinazoline-9,1′-cyclohexane]-7-one]: the IC50 is 10 to 100 nM. For `COCC1CN(Cc2nc3cc(Cl)c4c(c3o2)C2(CCCCC2)NC(=O)N4)C1` [Example 75, 5-Chloro-2-{[3-(methoxymethyl)azetidin-1-yl]methyl}-7,8-dihydro-6H-spiro[[1,3]oxazolo[5,4-f]quinazoline-9,1′-cyclohexane]-7-one], the IC50 was 10 to 100 nM. Consider `O=C1Nc2c(Cl)cc3nc(CN4CC5(CCOCC5)C4)oc3c2C2(CCCCC2)N1` [Example 76, 5-Chloro-2-{7-oxa-2-azaspiro[3.5]nonan-2-ylmethyl}-7,8-dihydro-6H-spiro[[1,3]oxazolo[5,4-f]quinazoline-9,1′-cyclohexane]-7-one], for which the IC50 lay within 10 to 100 nM.

Consider `COC1(C)CCN(Cc2nc3cc(Cl)c4c(c3o2)C2(CCCCC2)NC(=O)N4)CC1` [Example 77, 5-Chloro-2-[(4-methoxy-4-methylpiperidin-1-yl)methyl]-7,8-dihydro-6H-spiro[[1,3]oxazolo[5,4-f]quinazoline-9,1′-cyclohexane]-7-one], for which the IC50 was 10 to 100 nM. To `O=C1COC2(CCN(Cc3nc4cc(Cl)c5c(c4o3)C3(CCCCC3)NC(=O)N5)CC2)C1` [Example 78, 5-Chloro-2-({3-oxo-1-oxa-8-azaspiro[4.5]decan-8-yl}methyl)-7,8-dihydro-6H-spiro[[1,3]oxazolo[5,4-f]quinazoline-9,1′-cyclohexane]-7-one] belongs 10 to 100 nM.

Take `Cc1ccc(CNCc2nc3cc(Cl)c4c(c3o2)C2(CCCCC2)NC(=O)N4)cn1` [Example 80, 5-Chloro-2-({[(6-methylpyridin-3-yl)methyl]amino}methyl)-7,8-dihydro-6H-spiro[[1,3]oxazolo[5,4-f]quinazoline-9,1′-cyclohexane]-7-one]: the IC50 lay within 10 to 100 nM. To `CN(Cc1nc2cc(Cl)c3c(c2o1)C1(CCCCC1)NC(=O)N3)CC1CCOCC1` [Example 81, 5-Chloro-2-{[methyl(oxan-4-ylmethyl)amino]methyl}-7,8-dihydro-6H-spiro[[1,3]oxazolo[5,4-f]quinazoline-9,1′-cyclohexane]-7-one] belongs 10 to 100 nM; to `CN(Cc1nc2cc(Cl)c3c(c2o1)C1(CCCCC1)NC(=O)N3)CC1(C)COC1` [Example 82, 5-Chloro-2-({methyl[(3-methyloxetan-3-yl)methyl]amino}methyl)-7,8-dihydro-6H-spiro[[1,3]oxazolo[5,4-f]quinazoline-9,1′-cyclohexane]-7-one], 10 to 100 nM; to `O=C1Nc2c(Cl)cc3nc(CNCC4(F)COC4)oc3c2C2(CCCCC2)N1` [Example 83, 5-Chloro-2-({[(3-fluorooxetan-3-yl)methyl]amino}methyl)-7,8-dihydro-6H-spiro[[1,3]oxazolo[5,4-f]quinazoline-9,1′-cyclohexane]-7-one], 10 to 100 nM.

Take `O=C1Nc2c(Cl)cc3nc(CNCC4CCOCC4)oc3c2C2(CCCCC2)N1` [Example 84, 5-Chloro-2-{[(oxan-4-ylmethyl)amino]methyl}-7,8-dihydro-6H-spiro[[1,3]oxazolo[5,4-f]quinazoline-9,1′-cyclohexane]-7-one]: the IC50 was in the range of 10 to 100 nM. To `O=C1Nc2c(Cl)cc3nc(CN4CCC5(CC4)COC5)oc3c2C2(CCCCC2)N1` [Example 85, 5-Chloro-2-{2-oxa-7-azaspiro[3.5]nonan-7-ylmethyl}-7,8-dihydro-6H-spiro[[1,3]oxazolo[5,4-f]quinazoline-9,1′-cyclohexane]-7-one] belongs 10 to 100 nM.
